# Experimental data taken from the supplement of paper PMC3334620.
# Over roughly 33,000 sequences, “E-score (-0.5 to 0.5)” has its median near -0.016; the highest 2% begin near 0.31. The list shows a part of the results.
# Target: Cst6 (UniProt P40535)
# Test: PBM E-score (8-mer binding enrichment) (E-score (-0.5 to 0.5)); higher = stronger / more preferred TF binding; most listed sequences are background and not binding sites
# Conditions: protein concentration: 200 nM; construct: GST-DNA-binding domain
# Summary of the method: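 Universal all-10-mer Agilent arrays, double-stranded by primer extension on fresh or once-stripped slides, were probed with about 100-200 nM GST-tagged yeast transcription factors made by PURExpress. Fluorescent anti-GST detected bound protein, and masliner normalised the scans. E-scores from the Universal PBM Analysis Suite were given to each ungapped eight-base word pooled with its reverse complement.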
row,Sequence,PBM E-score
1,AGACTAGG,-0.143
2,ATCTTAGG,-0.0319
3,AACCTCGT,0.028
4,CCCACAGA,-0.116
5,GTGGTGGA,-0.186
6,ATCAGATA,0.0136
7,CGGATAGA,0.122
8,GACTAAAC,-0.0697
9,CAAGCGTG,0.00047
10,TCTATACA,-0.118
11,GAAAGATA,0.191
12,GGTGGCCA,-0.129
13,AATCCGAC,-0.0562
14,CGTACTAA,0.222
15,AGTGGGCG,-0.0507
16,CGACTGAA,-0.128
17,CTGTACTC,-0.312
18,ACCCCCCA,-0.301
19,CGCTCCGA,-0.114
20,ACAATGGA,0.043
21,ACGCTTCC,-0.0471
22,GGACTCGA,-0.158
23,TACCACGA,-0.0545
24,CGAAGCTC,-0.235
25,ATACGGTC,-0.0142

row,Sequence,PBM E-score
1,ATTGCGCA,-0.0485
2,ATTGGTTC,0.145
3,AGACAGAG,-0.0196
4,ATGCAGCC,0.0192
5,CGGAATGA,0.0862
6,AAGCGAGG,-0.205
7,CGACACAC,0.0466
8,CAAAACCG,0.0918
9,GATCGAGA,-0.0742
10,GATATATA,0.304
11,CGCTATGC,0.0733
12,TGCTCTAA,0.0796
13,AGGCGCAG,-0.146
14,CGGCAACC,-0.0677
15,AGGGAAAT,-0.0653
16,ACTACTTC,-0.107
17,CAGTCTAC,-0.271
18,GACCGCTA,-0.173
19,TAACATAA,0.272
20,CCTTCATC,-0.228
21,GGTATAAA,0.102
22,GAATGCTA,-0.0649
23,GGCTTCTA,-0.0454
24,ACACCACC,-0.18
25,GCCATTCC,-0.0999

row,Sequence,PBM E-score
1,ATTCTGTG,0.125
2,AGGATTGA,0.128
3,CTGGGCGC,-0.154
4,ACCCAATC,-0.0536
5,AGAACCAA,-0.0417
6,GACTGGCA,-0.256
7,AGCAATCG,0.0985
8,CAATTGGG,-0.0413
9,GAGTGATA,0.128
10,AACGCCAA,0.15
11,ATGGCCGG,-0.331
12,CCCGCTCA,-0.0513
13,AGAAGGAG,-0.231
14,AGTGTGGC,-0.042
15,ATGTGGCC,-0.174
16,CATTCCAG,-0.0492
17,GGAACCCA,-0.264
18,CCTTCGCG,-0.151
19,CGCATGGA,-0.255
20,CATTATGG,-0.157
21,ATCTTGTC,0.16
22,CTCTCTGA,-0.163
23,CTAACCGA,-0.128
24,CATTGTTA,0.188
25,AAATCTTA,0.211

row,Sequence,PBM E-score
1,CTTTCGTC,0.175
2,CTGACATA,0.324
3,ACTATTCG,0.0539
4,CGGCACTA,0.209
5,CCGCATAA,0.221
6,CCAAGAAG,0.00152
7,GCCGACGA,-0.14
8,ACGTAGAC,0.0579
9,CGATTCGC,-0.0221
10,ACAGTAGC,-0.145
11,GATTGCAA,0.00256
12,AGATGCGC,-0.0257
13,ACTATAAC,0.067
14,CGAACTAC,0.00996
15,CTGAGAGC,-0.0922
16,AGAGGTCC,-0.238
17,CTCATCCA,0.0578
18,TTGGGAAA,0.14
19,ATCTTACA,0.168
20,CCCGGTAG,-0.265
21,AGAAAAGC,0.0634
22,GACGAGAA,0.242
23,GGCGCACA,0.00702
24,CGTAAAGC,-0.114
25,TAATATCA,0.319

row,Sequence,PBM E-score
1,AGGACACT,-0.246
2,ACCGAGCC,-0.0469
3,TACTAGGA,-0.202
4,CCAATCGG,-0.0323
5,GGGTAGCA,-0.125
6,TCACCAGA,-0.0527
7,CCCCGCTA,-0.105
8,GGTCGTTA,-0.00422
9,AGAGACCG,-0.277
10,GCCCAATA,-0.0158
11,ATTGTCAC,0.219
12,CCTAACCA,0.0122
13,GGGACGAC,-0.17
14,AGCGACGA,-0.109
15,TACCATAA,0.194
16,TACAATAA,0.17
17,GTGCCACA,-0.0104
18,ATGTTGCA,0.0388
19,AAAGGTCA,-0.0478
20,ACCCCCGG,-0.297
21,GGAACACA,-0.114
22,AAGAGCGC,0.0801
23,CGTTAAAA,-0.0836
24,ACTATCCC,-0.222
25,CGGGTAAG,-0.212

row,Sequence,PBM E-score
1,CTTGGAGC,-0.246
2,GCACCTCC,-0.262
3,CATGGAGC,-0.137
4,GCCGTATA,0.367
5,CATCCGAA,0.0751
6,CGGCCGTC,-0.0527
7,CACTGCCC,-0.183
8,AGGCGGCG,0.204
9,AAAGCGGA,0.0107
10,AAGGGGGC,-0.279
11,AGTGAAGC,-0.0533
12,GGTAAACA,0.169
13,AAATCTGG,0.0145
14,AGCTGAAC,-0.295
15,AGTTCCCC,-0.0931
16,AAGTAAGG,0.036
17,TACTCGAA,0.167
18,AAAGCATC,-4e-05
19,ATGGGGAA,-0.0399
20,GTGATCAC,-0.0135
21,AATCGACC,-0.0526
22,AATGGGTA,0.0645
23,GCCCCTCC,-0.214
24,CCTGCATA,-0.0878
25,CCCAGTAC,-0.202

row,Sequence,PBM E-score
1,AGGACTTA,-0.169
2,AACGGTAT,0.0884
3,CGCGGATC,-0.0565
4,CGCACAGC,-0.0292
5,CCCGCGTC,0.104
6,GAGTAGCC,-0.145
7,TCCTTTAA,-0.0494
8,CGAGTGAC,0.115
9,GGGAGACA,-0.168
10,AATGTGCC,0.0547
11,GCGTTACC,-0.0944
12,CCGCGAGC,-0.169
13,GTGTCGCA,0.0474
14,GCGACACA,-0.0743
15,CACCAGTC,-0.206
16,ATCGTAGG,-0.153
17,ATATAATG,0.252
18,ACTGTGGG,-0.0161
19,AGATTGCA,0.0345
20,CGTAGATA,0.156
21,CCGGGCAA,-0.282
22,CTTCAGGC,-0.131
23,GAGGTGTA,0.0415
24,CAAGGGTG,0.0508
25,GGAACGAA,-0.0214

row,Sequence,PBM E-score
1,ACCCCTTA,-0.118
2,GTGTAAGA,0.0158
3,CTACCGTC,-0.206
4,CTAGAGAG,-0.196
5,AACGGATC,0.215
6,CGATTAGC,-0.0851
7,ATCATTCA,0.27
8,CGCTAGAG,-0.0884
9,TAAGGTAA,0.114
10,GCTGCAGC,-0.209
11,GCGGATTA,-0.0144
12,CGGGTTAC,0.034
13,ACTTTGCT,-0.0941
14,CGTCATAC,0.481
15,GAGAGAGA,0.0046
16,GCCTTTAA,-0.00012
17,AATTCGGC,-0.107
18,CTGCGCGA,-0.038
19,ATATGTGG,0.14
20,AGACAACT,0.0492
21,GCTTCGAA,-0.0925
22,AGTAATAC,-0.0264
23,AAAGTAAC,0.105
24,ACCTCTAG,-0.111
25,AGTGAATA,0.179

row,Sequence,PBM E-score
1,GGCGCAAC,-0.00604
2,ACGCCCAA,-0.0666
3,CGGCTGGA,-0.227
4,AACACACC,0.0799
5,ATATTGCC,0.149
6,ACAAAGTA,0.135
7,AGTACATC,-0.0114
8,AGGCGCCC,-0.00596
9,CGACAGTA,-0.165
10,TAAGTATA,0.122
11,ATAGACCA,-0.111
12,TCCCCAGA,-0.143
13,ATCACCGA,0.212
14,GCGAGTAA,0.117
15,CATTGCGC,0.0683
16,GGCACCAC,-0.1
17,AATTCCCT,-0.0661
18,CAAGCTCC,-0.261
19,AACTGTGC,-0.138
